According to the supplement of paper PMC8728848:
This is one part of the list.

Columns and labels:
Assay in all cases: glycan array binding signal (z-score within array); higher = stronger binding
Conditions in all cases: glycan notation: IUPAC condensed, linker removed
Fuc(a1-2)Gal = target: Fuc(a1-2)Gal
How it was run: (§1)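 The binding signal is a Z-score computed within each array and averaged over linkers. Arrays of the same protein sequence at different concentrations or buffers were also averaged together. Data originate from 3228 arrays in the Consortium for Functional Glycomics database, kept only where the protein sequence was available.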

Fuc(a1-2)Gal(b1-3)GalNAc = target: Fuc(a1-2)Gal(b1-3)GalNAc
How it was run: as §1

[1] = target: Fuc(a1-2)Gal(b1-3)GalNAc(a1-3)[Fuc(a1-2)]Gal(b1-4)Glc
How it was run: as §1

[2] = target: Fuc(a1-2)Gal(b1-3)GalNAc(a1-3)[Fuc(a1-2)]Gal(b1-4)GlcNAc
How it was run: as §1

[3] = target: Fuc(a1-2)Gal(b1-3)GalNAc(b1-3)Gal
How it was run: as §1

[4] = target: Fuc(a1-2)Gal(b1-3)GalNAc(b1-3)Gal(a1-4)Gal(b1-4)Glc
How it was run: as §1

[5] = target: Fuc(a1-2)Gal(b1-3)GalNAc(b1-4)[Neu5Ac(a2-3)]Gal(b1-4)Glc
How it was run: as §1

Fuc(a1-2)Gal(b1-3)GlcNAc = target: Fuc(a1-2)Gal(b1-3)GlcNAc
How it was run: as §1

[6] = target: Fuc(a1-2)Gal(b1-3)GlcNAc(b1-2)Man(a1-3)[Fuc(a1-2)Gal(b1-3)GlcNAc(b1-2)Man(a1-6)]Man(b1-4)GlcNAc(b1-4)GlcNAc
How it was run: as §1

[7] = target: Fuc(a1-2)Gal(b1-3)GlcNAc(b1-2)Man(a1-3)[Fuc(a1-2)Gal(b1-3)GlcNAc(b1-2)Man(a1-6)]Man(b1-4)GlcNAc(b1-4)[Fuc(a1-6)]GlcNAc
How it was run: as §1

[8] = target: Fuc(a1-2)Gal(b1-3)GlcNAc(b1-3)Gal(b1-4)Glc
How it was run: as §1

[9] = target: Fuc(a1-2)Gal(b1-3)GlcNAc(b1-3)GalNAc
How it was run: as §1

[10] = target: Fuc(a1-2)Gal(b1-3)GlcNAc(b1-3)[Fuc(a1-3)[Gal(b1-4)]GlcNAc(b1-6)]Gal(b1-4)Glc
How it was run: as §1

[11] = target: Fuc(a1-2)Gal(b1-3)GlcNAc(b1-3)[Gal(b1-4)GlcNAc(b1-6)]Gal(b1-4)Glc
How it was run: as §1

[12] = target: Fuc(a1-2)Gal(b1-3)[Fuc(a1-4)]GlcNAc
How it was run: as §1

[13] = target: Fuc(a1-2)Gal(b1-3)[Fuc(a1-4)]GlcNAc(b1-2)Man(a1-3)[Fuc(a1-2)Gal(b1-3)[Fuc(a1-4)]GlcNAc(b1-2)Man(a1-6)]Man(b1-4)GlcNAc(b1-4)GlcNAc
How it was run: as §1

[14] = target: Fuc(a1-2)Gal(b1-3)[Fuc(a1-4)]GlcNAc(b1-3)[Fuc(a1-3)[Gal(b1-4)]GlcNAc(b1-6)]Gal(b1-4)Glc
How it was run: as §1

[15] = target: Fuc(a1-2)Gal(b1-3)[Fuc(a1-4)]GlcNAc(b1-3)[Gal(b1-4)GlcNAc(b1-6)]Gal(b1-4)Glc
How it was run: as §1

Fuc(a1-2)Gal(b1-4)Glc = target: Fuc(a1-2)Gal(b1-4)Glc
How it was run: as §1

Fuc(a1-2)Gal(b1-4)Glc6S = target: Fuc(a1-2)Gal(b1-4)Glc6S
How it was run: as §1

Fuc(a1-2)Gal(b1-4)GlcNAc = target: Fuc(a1-2)Gal(b1-4)GlcNAc
How it was run: as §1

[16] = target: Fuc(a1-2)Gal(b1-4)GlcNAc(b1-2)Man(a1-3)[Fuc(a1-2)Gal(b1-4)GlcNAc(b1-2)Man(a1-6)]Man(b1-4)GlcNAc(b1-4)GlcNAc
How it was run: as §1

[17] = target: Fuc(a1-2)Gal(b1-4)GlcNAc(b1-2)Man(a1-3)[Fuc(a1-2)Gal(b1-4)GlcNAc(b1-2)Man(a1-6)]Man(b1-4)GlcNAc(b1-4)[Fuc(a1-6)]GlcNAc
How it was run: as §1

[18] = target: Fuc(a1-2)Gal(b1-4)GlcNAc(b1-2)[Fuc(a1-2)Gal(b1-4)GlcNAc(b1-4)]Man(a1-3)[Fuc(a1-2)Gal(b1-4)GlcNAc(b1-2)Man(a1-6)]Man(b1-4)GlcNAc(b1-4)GlcNAc
How it was run: as §1

[19] = target: Fuc(a1-2)Gal(b1-4)GlcNAc(b1-3)Gal(b1-4)GlcNAc
How it was run: as §1

[20] = target: Fuc(a1-2)Gal(b1-4)GlcNAc(b1-3)Gal(b1-4)GlcNAc(b1-3)Gal(b1-4)GlcNAc
How it was run: as §1

[21] = target: Fuc(a1-2)Gal(b1-4)GlcNAc(b1-3)GalNAc
How it was run: as §1

[22] = target: Fuc(a1-2)Gal(b1-4)GlcNAc6S
How it was run: as §1

[23] = target: Fuc(a1-2)Gal(b1-4)[Fuc(a1-3)]GlcNAc
How it was run: as §1

[24] = target: Fuc(a1-2)Gal(b1-4)[Fuc(a1-3)]GlcNAc(b1-2)Man(a1-3)[Fuc(a1-2)Gal(b1-4)[Fuc(a1-3)]GlcNAc(b1-2)Man(a1-6)]Man(b1-4)GlcNAc(b1-4)GlcNAc
How it was run: as §1

[25] = target: Fuc(a1-2)Gal(b1-4)[Fuc(a1-3)]GlcNAc(b1-2)[Fuc(a1-2)Gal(b1-4)[Fuc(a1-3)]GlcNAc(b1-4)]Man(a1-3)[Fuc(a1-2)Gal(b1-4)[Fuc(a1-3)]GlcNAc(b1-2)Man(a1-6)]Man(b1-4)GlcNAc(b1-4)GlcNAc
How it was run: as §1

[26] = target: Fuc(a1-2)Gal(b1-4)[Fuc(a1-3)]GlcNAc(b1-3)Gal(b1-4)[Fuc(a1-3)]GlcNAc
How it was run: as §1

[27] = target: Fuc(a1-2)Gal(b1-4)[Fuc(a1-3)]GlcNAc(b1-3)Gal(b1-4)[Fuc(a1-3)]GlcNAc(b1-3)Gal(b1-4)[Fuc(a1-3)]GlcNAc
How it was run: as §1

[28] = target: Fuc(a1-2)Gal(b1-4)[Fuc(a1-3)]GlcNAc(b1-3)GalNAc
How it was run: as §1

Fuc(a1-2)Gal6S(b1-4)Glc = target: Fuc(a1-2)Gal6S(b1-4)Glc
How it was run: as §1

[29] = target: Fuc(a1-2)Gal6S(b1-4)Glc6S
How it was run: as §1

[30] = target: Fuc(a1-2)Gal6S(b1-4)GlcNAc
How it was run: as §1

B1: PILRa (Homo sapiens), Q9UKJ1 (protein)
chain: MGRPLLLPLLPLLLPPAFLQPSGSTGSGPSYLYGVTQPKHLSASMGGSVEIPFSFYYPWELATAPDVRISWRRGHFHRQSFYSTRPPSIHKDYVNRLFLNWTEGQKSGFLRISNLQKQDQSVYFCRVELDTRSSGRQQWQSIEGTKLSITQAVTTTTQRPSSMTTTWRLSSTTTTTGLRVTQGKRRSDSWHISLETAVGVAVAVTVLGIMILGLICLLRWRRRKGQQRTKATTPAREPFQNTEEPYENIRNEGQNTDPKLNPKDDGIVYASLALSSSTSPRAPPSHRPLKSPQNETLYSVLKA
glycan array binding signal (z-score) (Fuc(a1-2)Gal): -0.086 | glycan array binding signal (z-score) (Fuc(a1-2)Gal(b1-3)GalNAc): -0.147 | glycan array binding signal (z-score) [1]: 0.021 | glycan array binding signal (z-score) [2]: -0.202 | glycan array binding signal (z-score) [3]: 0.215 | glycan array binding signal (z-score) [4]: -0.306 | glycan array binding signal (z-score) [5]: -0.102 | glycan array binding signal (z-score) (Fuc(a1-2)Gal(b1-3)GlcNAc): -0.012 | glycan array binding signal (z-score) [6]: -0.191 | glycan array binding signal (z-score) [7]: 0.026 | glycan array binding signal (z-score) [8]: -0.181 | glycan array binding signal (z-score) [9]: -0.519 | glycan array binding signal (z-score) [10]: -0.12 | glycan array binding signal (z-score) [11]: -0.003 | glycan array binding signal (z-score) [12]: -0.278 | glycan array binding signal (z-score) [13]: 4.38 | glycan array binding signal (z-score) [14]: 0.056 | glycan array binding signal (z-score) [15]: -0.237 | glycan array binding signal (z-score) (Fuc(a1-2)Gal(b1-4)Glc): -0.217 | glycan array binding signal (z-score) (Fuc(a1-2)Gal(b1-4)Glc6S): -0.229 | glycan array binding signal (z-score) (Fuc(a1-2)Gal(b1-4)GlcNAc): -0.263 | glycan array binding signal (z-score) [16]: -0.087 | glycan array binding signal (z-score) [17]: -0.374 | glycan array binding signal (z-score) [18]: -0.21 | glycan array binding signal (z-score) [19]: -0.365 | glycan array binding signal (z-score) [20]: -0.355 | glycan array binding signal (z-score) [21]: -0.184 | glycan array binding signal (z-score) [22]: -0.228 | glycan array binding signal (z-score) [23]: -0.165 | glycan array binding signal (z-score) [24]: 2.16 | glycan array binding signal (z-score) [25]: 4.02 | glycan array binding signal (z-score) [26]: 1.78 | glycan array binding signal (z-score) [27]: -0.189 | glycan array binding signal (z-score) [28]: 5.45 | glycan array binding signal (z-score) (Fuc(a1-2)Gal6S(b1-4)Glc): -0.131 | glycan array binding signal (z-score) [29]: 0.337 | glycan array binding signal (z-score) [30]: -0.127
